# Test results: publication PMC12136788
# The list shows a part of the results.
# T1: UNK ZnF1-3 (human, UniProt Q9C0B0 31-174)
# T1 sequence: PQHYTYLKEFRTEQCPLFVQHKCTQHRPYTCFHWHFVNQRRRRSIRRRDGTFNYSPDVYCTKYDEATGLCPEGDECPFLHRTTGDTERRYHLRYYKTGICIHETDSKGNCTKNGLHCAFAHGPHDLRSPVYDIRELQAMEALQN
# B1: 98787355_98787475_131_3pUTR_ENSG00000104341_ENST00000445593|human|control|control (ssRNA)
# RNA: GGGAGUUCUACAGUCCGACGAUCCCGGCCCGCUUCUACUUCUAUCUUGCAGGUAAUCGAUACAGCUCCUAUCACUCUUAUCUUGCACGAGAGGAAGGAAAACUGCGCGGUGCUAUUCCAGUCAAUUGCAGUACUUUGAACCACCAACAGAGGAUUGAGCAUCA
# B2: chr16:56974071:56974072:+_ENSG00000051108_ENST00000439977|hu_mus|FALSE|FALSE (ssRNA)
# RNA: GGGAGUUCUACAGUCCGACGAUCCAUGAGAAAUCUGCUCAGCGAGGAGUAGAAGUAAAGGAUGCUGAGGAAAACAGAAAACGUCGCUGCGGAAUAGGUCCAAUCCAACCAGUCUCGGUUUAUCUCAUCAUCUUCCUCCACCAGCAACAGAGGAUUGAGCAUCA
# B3: chr12:46321692:46321693:-_ENSG00000139218_ENST00000369367|hu_mus|FALSE|FALSE (ssRNA)
# RNA: GGGAGUUCUACAGUCCGACGAUCGCUCUCUACAAAUGCUUCUAUGUUUACUGCAGAAUCGUUCAAGUCAGUACUUUCUACAGUGAGACUCUCCCCUGUUCUUUCAUCGUUCAAGUCAGUACUUUCUACAGUGAGACUCUCCUCCAACAGAGGAUUGAGCAUCA
# B4: chrX:118797523:118797524:-_ENSG00000125354_ENST00000360156|hu_mus|FALSE|FALSE (ssRNA)
# RNA: GGGAGUUCUACAGUCCGACGAUCCACGAUGGGCUUGUAGCUGUCCUCCUUGUUGAUCUGAUCCCCAAAGCCUACAGUGCUCACAAUUGUGAGUUUCAACCCCACGUUGCUCUCCUGGAGGUCGUAGGUAUUGGACUGGAGCUGCAACAGAGGAUUGAGCAUCA
# B5: chr2:168009442:168009443:-_ENSMUSG00000051149_ENSMUST00000088001|mus_hu|motif|central (ssRNA)
# RNA: GGGAGUUCUACAGUCCGACGAUCGCGAUUACAGUAGAGGCAUUUGCUAGUAAAAUUGUGUAUUUUCAUAAUGUAGUUGGCGGCUGCUGGGACUUUCUCAGCUUUAUGUUCUUUUUCGAAGUGCACACUAUAGACAUUUUCAGGCAACAGAGGAUUGAGCAUCA
# B6: chr5:139724684:139724685:+_ENSMUSG00000036817_ENSMUST00000110883|mus_hu|FALSE|FALSE (ssRNA)
# RNA: GGGAGUUCUACAGUCCGACGAUCCUCUCAGCUUCCUCUGCUUUGCUCCUUUGUUGAGGAAAUGCAAAUGCAAAGAGCUUCCCGUUAAAAACAAGGAGUGUCUGAGAGCCACGUGUUCAACACGCUUCUCCUGCUGCUGACCCCCAACAGAGGAUUGAGCAUCA
# B7: chr19:33076771:33076772:+_ENSG00000105185_ENST00000590247|hu_hu|motif|central (ssRNA)
# RNA: GGGAGUUCUACAGUCCGACGAUCUGCCAUCUGUAUAAGGUAAUUCUCUACUGCUUUAGUUUUUUCAGGCUUUACAAGUGCGGAGUUACUUAACCUGGCCCGGGCCGACUGAUCCAGAACUUGGGCUAAGAUACUGUUUCUCAUCAACAGAGGAUUGAGCAUCA
# B8: chr8:101271117:101271118:-_ENSG00000034677_ENST00000519449|hu_hu|motif|central (ssRNA)
# RNA: GGGAGUUCUACAGUCCGACGAUCAUAAUCACUGGAACCAUGACUACAAGAAGUUUUCAUGCUUUCUAGGUCAGAACAACGGAAUUCAGAAAAAUGACUAGAGUGAGAAUCUGCUACAGAAGGCAUACUGUCACUGAGGGAUGGCAACAGAGGAUUGAGCAUCA
# B9: chrX:98878078:98878079:+_ENSMUSG00000034160_ENSMUST00000044475|mus_mus|FALSE|FALSE (ssRNA)
# RNA: GGGAGUUCUACAGUCCGACGAUCAAGCAACAUUUUAGUUUAAAACCUCAGAAGAAUCAAGAUCACUUCACAUGAGUAAAAAUACCUGAAAGCAAACAUUUUUAAAAGCUCCAAAACCCAAAAUAUAAAGAAAAAAAAAAGGAUCAACAGAGGAUUGAGCAUCA
# B10: chr12:96407613:96407614:-_ENSG00000111144_ENST00000228740|hu_mus|motif|central (ssRNA)
# RNA: GGGAGUUCUACAGUCCGACGAUCCUUCCAGUCAUCAGUCGUUACACUUUGGUAGGAAAACUUCUUAACAUAAGCCUUUAAGAAUCCGGGAAACACCUCUGGUCCCCCAAGAAGCUGUUCAAGGUAGAAGAGUAGCGCAAAGCCCAACAGAGGAUUGAGCAUCA
# B11: chr4:140556289:140556290:+_ENSMUSG00000036622_ENSMUST00000037055|mus_mus|mus_mus_mus_hu_False|8_68 (ssRNA)
# RNA: GGGAGUUCUACAGUCCGACGAUCGAUGGAGCUCACCAGGCCCCCUUUUGCCGUGCAGAACCCUGUGCGAGUCACCACUGCCAGGACGUGCGGUCCCACAUAGGCCCGGGCCUGCAAGAUGAGGGUCCCACAGAAGAGUGUGUGCAACAGAGGAUUGAGCAUCA
# B12: chr7:141441981:141441982:+_ENSG00000106028_ENST00000265304|hu_mus|hu_hu_hu_mus_False|28_58 (ssRNA)
# RNA: GGGAGUUCUACAGUCCGACGAUCCUCAUGUCUUACAAACUGACGAAAUACCUGUAACACAGGUCUUCGAAACAUGGCUUCUAUUUUUCUUACAACCUAAUCUUUAGUUAGGCUUUUAAGGAAAGAAAGAAAAGAGAAAAAUGACAACAGAGGAUUGAGCAUCA
# B13: chr6:40197388:40197389:+_ENSMUSG00000057716_ENSMUST00000061740|mus_mus|mus_mus_mus_hu_False|18_28 (ssRNA)
# RNA: GGGAGUUCUACAGUCCGACGAUCGAGACACUGGGGUGGAUUUAUUCCACCUCUGUUUGGGUGCUAGCCACUAAGACUGUUAUUUUGGGAUUCAUGGCCUUGAAUAUCAAGAGGAAAGGGACGAGAAUGGAAAGAGUCAAGAGUCAACAGAGGAUUGAGCAUCA
# B14: chr4:57314706:57314707:+_ENSG00000128050_ENST00000264221|hu_mus|hu_hu_hu_mus_True|48_78 (ssRNA)
# RNA: GGGAGUUCUACAGUCCGACGAUCCAGAAUUUCAAAAAUAGCUUGUGUGGCAUGACUCAUGAUAUCCACUUCAGUCUGCCCUAUAACAAGUCCAGCAAAACAGAAUUUUGCAGCAAUGAGUUGCUCCUCAGACCACUGUGGAUCCAACAGAGGAUUGAGCAUCA
# Target: T1, UNK ZnF1-3
# Assay: nsRBNS (natural sequence RNA bind-n-seq); RBNS binding buffer (assumed for nsRBNS): 25 mM Tris pH 7.5, 150 mM KCl, 3 mM MgCl2, 0.01% Triton X-100, 500 ug/ml BSA, 20 U/ml SUPERase-In, 4 C; UNK is unkempt and MSI1 is Musashi-1; names of the RNAs are library labels; protein concentration not given here; high values mean tight binding
row,Binder,binding signal [enrichment R]
1,B1,0.722
2,B2,0.921
3,B3,0.734
4,B4,0.603
5,B5,1.78
6,B6,0.618
7,B7,0.879
8,B8,1.19
9,B9,1.48
10,B10,1.18
11,B11,1.01
12,B12,0.595
13,B13,1.21
14,B14,0.97
